Measurements reported in PubChem BioAssay AID2202238 (Ras Initiative Chemistry Research Team, Frederick National …, 2025).
Some of the results follow. The main result of the screen is listed elsewhere. These columns were measured beside it and carry no call.

Molecular target: GTPase KRas (Homo sapiens) (UniProt P01116)
Experiment: Cysteine mutants labelled by reactive fragments (mass read-out) (AID 2202238)
Design: protein at 5 µM with 500 µM competing thiol for 1.5 h
Conditions: KRAS G12D cysteine mutants, disulfide tethering, MALDI-TOF labeling, stronger effect = higher value, fragment at 500 µM
[1] = measured here: G60C mutant labeling
[2] = measured here: G75C mutant labeling
[3] = measured here: H94C mutant labeling
[4] = measured here: I36C mutant labeling
[5] = measured here: L120C mutant labeling
[6] = measured here: M67C mutant labeling
[7] = measured here: M72C mutant labeling
[8] = measured here: N26C mutant labeling
[9] = measured here: N86C mutant labeling
[10] = measured here: P121C mutant labeling
[11] = measured here: S122C mutant labeling
[12] = measured here: S136C mutant labeling

UniProt P01116, sequence (P01116 whole entry, looked up, the tested form may be a part): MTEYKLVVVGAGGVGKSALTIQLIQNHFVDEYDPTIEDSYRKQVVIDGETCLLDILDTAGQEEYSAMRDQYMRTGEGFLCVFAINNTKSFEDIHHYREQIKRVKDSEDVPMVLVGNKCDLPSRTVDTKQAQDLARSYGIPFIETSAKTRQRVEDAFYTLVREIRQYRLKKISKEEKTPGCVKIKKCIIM

Row | Structure (SMILES) | percent labeling [1] [%] | percent labeling [2] [%] | percent labeling [3] [%] | percent labeling [4] [%] | percent labeling [5] [%] | percent labeling [6] [%] | percent labeling [7] [%] | percent labeling [8] [%] | percent labeling [9] [%] | percent labeling [10] [%] | percent labeling [11] [%] | percent labeling [12] [%]
1 | Cc1ccc(N2CCCC2=O)c(C(=O)NCCS)c1 | 31.5 | 10.3 | 41.7 | 21.4 | 37.2 | 29.3 | 15.2 | 34.5 | 26.3 | 34.6 | 31.9 | 43.6
2 | O=C(CCS)Nc1cnn2cc(Br)cnc12 | – | 9.7 | 28.3 | 31.1 | 22.4 | 24.3 | 32.6 | – | 10.9 | 20.8 | 24.3 | 45.4
3 | Cc1c(CN2CCSCC2)cccc1NC(=O)CCS | – | 13.9 | 36.1 | 42.3 | 30.8 | 41.1 | 25.1 | – | 22.9 | 31.3 | 24.7 | 59.1
4 | CN1Cc2ccc(NC(=O)CCS)cc2C1=O | – | 15.4 | 21.4 | 36.1 | 28.3 | 25.3 | 35.8 | – | 31 | 24.1 | 32.6 | 46.3
5 | Cn1c2c(ccc1=O)C(NC(=O)CCS)CCC2 (configuration not stated) | – | 8.8 | 30.4 | 34.3 | 26.7 | 41.5 | 14.5 | – | 11.1 | 31.4 | 31.7 | 47.3
6 | CN(CCO)C1(CNC(=O)CCS)CCCCC1 | – | 7.4 | 31.5 | 45.1 | 25.1 | 41.8 | 12.7 | – | 14.4 | 26.9 | 24.7 | 53.5
7 | O=C(CNC(=O)N1CCc2ccccc2C1)NCCS | 27.6 | 12.8 | 27.2 | 22.1 | 37 | 31.7 | 29 | 33.8 | 18.5 | 29.1 | 24.4 | 31.2
8 | Cc1nc2nnnn2c(C)c1CCC(=O)NCCS | 41.5 | 11.9 | 26.5 | 41 | 26.2 | 31.8 | 17.4 | 33.5 | 23.8 | 32.5 | 25.3 | 36.9
9 | O=C(NCCS)c1ccc2ccccc2c1O | 34.7 | 24 | 14.5 | 17.1 | 18.1 | 11.4 | 59.2 | 30.1 | 13.7 | 28.1 | 6.3 | 28.6
10 | O=C(CCS)Nc1ccn(-c2ncccc2C(F)(F)F)n1 | – | 15.6 | 41 | 32.7 | 35.1 | 32.2 | 42.8 | – | 32.1 | 32.8 | 28.1 | 54.8
11 | Cc1ccc2[nH]cc(CCC(=O)NCCS)c2c1 | 33.5 | 5.1 | 17.9 | 14.2 | 20.4 | 17.6 | 24.7 | 20.6 | 9 | 18.7 | 14 | 26.3
12 | CC(C)(C)CCC1(O)CC(C(=O)NCCS)C1 (configuration not stated) | 29.7 | 11.6 | 27.2 | 17.4 | 28.9 | 23.7 | 17.8 | 42.2 | 24.5 | 29.4 | 28.3 | 40.3
13 | COc1ccc2onc(CC(=O)NCCS)c2c1 | 42.6 | 3.5 | 21.3 | 27 | 32.6 | 34.3 | 49 | 35.3 | 19.8 | 23.5 | 25.9 | 40.6
14 | Cc1nc2c3ccccc3nn2c(C)c1CCC(=O)NCCS | 27.6 | 10.7 | 16.8 | 21.4 | 13.6 | 30.1 | 12.7 | 26.2 | 11.6 | 16.3 | 8.1 | 18.6
15 | O=C(CCS)N1CCC(n2ccnn2)CC1 | – | 14.3 | 29.6 | 43.5 | 31.2 | 37.8 | 25 | – | 31.5 | 40.6 | 40.4 | 60.3
16 | O=C(CCS)NCCn1cnc2ccccc2c1=O | – | 9.6 | 31.2 | 42.4 | 31.5 | 32.4 | 20.2 | – | 20.6 | 31.9 | 31.5 | 48.4
17 | Cc1sc(-n2cccc2)c(C(=O)NCCS)c1C | 54.1 | 17.5 | 24.6 | 13.1 | 23.6 | 26.7 | 33.9 | 31.8 | 16 | 21.1 | 16.2 | 31.4
18 | O=C(CCS)NCc1ncc2c(n1)CCOC2 | – | 4 | 11.9 | 21.5 | 24.2 | 11.8 | 4.2 | – | 4.3 | 10.4 | 9.8 | 16
19 | O=C(CCS)N1CCC2=C(C=NS(=O)(=O)N2)C1 | – | 8.6 | 14.2 | 21.2 | 18.3 | 20.5 | 7.3 | – | 9.1 | 26.4 | 30.7 | 22.4
20 | CN(C)CC1COC2(CCCC2)CN1C(=O)CCS (configuration not stated) | – | 10 | 40.8 | 43.2 | 28.2 | 43.5 | 20.5 | – | 17.9 | 31.7 | 27.3 | 53.8
21 | CCc1cc(C(=O)NCCS)ccc1Br | 38.3 | 15.4 | 9.9 | 7.4 | 18.9 | 12.6 | 24.7 | 28 | 13.1 | 20.1 | 11 | 22
22 | O=C(NCCS)c1cc2scc(Br)c2[nH]1 | 33.2 | 15.3 | 16 | 11.3 | 15 | 10.8 | 28.1 | 22.6 | 11.6 | 11.7 | 8.2 | 12.9
23 | Cc1ccn(-c2ccccc2NC(=O)CCS)n1 | – | 15.2 | 39 | 39 | 29.7 | 34.5 | 32.9 | – | 39.7 | 33.3 | 32.3 | 51.8
24 | Cc1cc(-n2cccc2)ccc1C(=O)NCCS | 31.2 | 9.8 | 21.9 | 12.5 | 16.7 | 14.6 | 34.3 | 30.7 | 8.4 | 19.2 | 11.7 | 17.8

Row | Structure (SMILES) | percent labeling [1] [%] | percent labeling [2] [%] | percent labeling [3] [%] | percent labeling [4] [%] | percent labeling [5] [%] | percent labeling [6] [%] | percent labeling [7] [%] | percent labeling [8] [%] | percent labeling [9] [%] | percent labeling [10] [%] | percent labeling [11] [%] | percent labeling [12] [%]
25 | CCCn1c(C(=O)NCCS)cc2ccccc21 | 33.6 | 11.1 | 12.4 | 5.2 | 10.8 | 4.3 | 28 | 28 | 6 | 13.4 | 4.4 | 10.3
26 | O=C(CCS)NCC(=O)NC1CCC(O)CC1 (configuration not stated) | – | 4.8 | 22.5 | 29.9 | 40.3 | 27.9 | 11.7 | – | 25.4 | 33.6 | 32 | 41.6
27 | O=C(CC1CC(=O)Nc2ccccc21)NCCS (configuration not stated) | 43.7 | 16.3 | 35.5 | 30.8 | 30 | 42.5 | 24.2 | 39.5 | 32.1 | 32.4 | 34 | 47.2
28 | Cc1onc(-c2ccsc2)c1C(=O)NCCS | 40.2 | 12.8 | 29.1 | 18.6 | 22.5 | 25.4 | 28.9 | 32.7 | 18.1 | 20.4 | 18.9 | 33.6
29 | O=C(CCc1ncc[nH]1)NCCS | 28.4 | 23.2 | 28.4 | 26.1 | 30 | 27.8 | 15.4 | 30.4 | 26.5 | 34.3 | 26.6 | 41
30 | CC1CCC(C(=O)NCCS)C2C(=O)N(c3ccccc3)C(=O)C12 (configuration not stated) | 35.8 | 24.1 | 26.1 | 14.3 | 32.5 | 61.9 | 37.1 | 21.9 | 15.5 | 16.8 | 16.5 | 37.3
31 | O=C(NCCS)C1CCC(c2ccccc2)CC1 (configuration not stated) | 24.1 | 11.1 | 15.1 | 9.8 | 11.1 | 6.9 | 40.9 | 28.8 | 5.5 | 10.3 | 10.7 | 15.5
32 | O=C(CCS)NC1CC(N2CCC(C(F)(F)F)CC2)C1 (configuration not stated) | – | 12.5 | 34.2 | 34.8 | 28.3 | 39.1 | 17 | – | 20.6 | 32.9 | 33.5 | 46.5
33 | Cc1ccc(C(=O)NCCS)cc1N1C(=O)C2CCCCC2C1=O (configuration not stated) | 24.1 | 10.6 | 16.2 | 11.7 | 26.3 | 10.7 | 28.5 | 28.1 | 13.4 | 11.1 | 11.8 | 26.9
34 | O=C(CCS)N1CCC(c2nn(-c3ccccc3)cc2F)CC1 | – | 21.1 | 23.6 | 22 | 13.7 | 27.1 | 28.5 | – | 15.8 | 17.7 | 10.5 | 28.8
35 | Cn1nc2c(c1NC(=O)CCS)CCCC2 | – | 17.6 | 38.6 | 44.9 | 23.7 | 35.1 | 31.7 | – | 35.4 | 38.8 | 31.4 | 49.2
36 | Cc1c(Br)ccc2nc(C(=O)NCCS)cn12 | 10.7 | 6.3 | 7.5 | 9.9 | 8.2 | 11.1 | 35 | 20.7 | 5.3 | 26.3 | 4.9 | 14
37 | Cc1cnc(OC2CCN(C(=O)CCS)CC2)nc1 | – | 13.3 | 28.9 | 37.2 | 34 | 40 | 30 | – | 20.7 | 35.7 | 37.3 | 55.2
38 | Cc1noc(C)c1CN(C(=O)CCS)c1ccccc1 | – | 20.5 | 56.5 | 41.4 | 35.8 | 44.2 | 46.5 | – | 32.5 | 34.4 | 32.9 | 71.3
39 | O=C(NCCS)c1cc(C2CCOCC2)no1 | 30.1 | 19.1 | 31.5 | 32 | 41.1 | 36.5 | 48.2 | 29.6 | 25.9 | 32.4 | 34.8 | 48.1
40 | O=C(COc1nsnc1N1CCOCC1)NCCS | 39.5 | 17.2 | 40.3 | 29 | 35.9 | 39.2 | 28.4 | 39.8 | 27 | 31.7 | 31.1 | 45.9
41 | O=C(CCS)N1CCN(c2cccc(F)c2F)CC1 | – | 19.5 | 33.8 | 31.2 | 31.9 | 39.4 | 42.8 | – | 22.8 | 31 | 31 | 51.7
42 | Cc1ccc2nc(COc3ccc(C(=O)NCCS)cc3)cn2c1 | 15.3 | 7.6 | 8.5 | 5.8 | 8.6 | 7.5 | 39.4 | 26.6 | 4.7 | 5.3 | 3.8 | 5.6
43 | O=C(NCCS)c1nc(C2CC2)n(-c2ccccc2)n1 | 32.4 | 25.5 | 30.7 | 18.2 | 55.2 | 26.1 | 56.8 | 39.2 | 21.3 | 26.8 | 25.3 | 66.4
44 | CCOC(=O)c1ccnc(C2(NC(=O)CCS)CC2)n1 | – | 6.4 | 32.7 | 36.8 | 28.2 | 30.4 | 16.8 | – | 27.3 | 26.7 | 32.2 | 46.9
45 | O=C(CCC1Cc2ccccc2NC1=O)NCCS (configuration not stated) | 46.8 | 22.3 | 37.2 | 33.5 | 40.1 | 46 | 42.1 | 43.1 | 30.9 | 39.2 | 39.8 | 56.5
46 | O=C(CCS)N1CCc2[nH]cnc2C1c1ccccc1 (configuration not stated) | – | 38.8 | 49.5 | 46.1 | 41.2 | 58.3 | 52.8 | – | 37 | 34.6 | 35.5 | 75.2
47 | CC(C)c1nc(-c2ccccc2Cl)ncc1C(=O)NCCS | 30.6 | 13.2 | 13.6 | 10.4 | 11.2 | 9.9 | 27.4 | 23.7 | 7.7 | 15.5 | 9.9 | 18.7
